In PubChem BioAssay AID881 (National Center for Advancing Translational Sciences (NCATS), 2007):
In all, about 110,000 compounds went through this assay and about 610 (0.55%) were called active. Inconclusive results, whose numbers are uncertain, are shown with a selection of clear calls. Calls follow the shape of the dose curve; as a rule, active = well fitted inhibition curve with a large enough effect; inconclusive = small, poorly fitted or top-dose-only effect; inactive = no such curve, though single readings can be large or run the other way. Potencies beside an inconclusive call are fits to weak or partial responses and may not hold up.

molecular target: Polyunsaturated fatty acid lipoxygenase ALOX15B (Homo sapiens) (UniProt O15296); assay: qHTS Assay for Inhibitors of 15-hLO-2 (15-human lipoxygenase 2); details: purified 15hLO-2, xylenol orange hydroperoxide absorbance; activity change, negative = inhibition: at 57.1 µM (top of the series) unless noted; also: nearly all actives have a fitted effect of over 60% in size
UniProt O15296, sequence (O15296 whole entry, looked up): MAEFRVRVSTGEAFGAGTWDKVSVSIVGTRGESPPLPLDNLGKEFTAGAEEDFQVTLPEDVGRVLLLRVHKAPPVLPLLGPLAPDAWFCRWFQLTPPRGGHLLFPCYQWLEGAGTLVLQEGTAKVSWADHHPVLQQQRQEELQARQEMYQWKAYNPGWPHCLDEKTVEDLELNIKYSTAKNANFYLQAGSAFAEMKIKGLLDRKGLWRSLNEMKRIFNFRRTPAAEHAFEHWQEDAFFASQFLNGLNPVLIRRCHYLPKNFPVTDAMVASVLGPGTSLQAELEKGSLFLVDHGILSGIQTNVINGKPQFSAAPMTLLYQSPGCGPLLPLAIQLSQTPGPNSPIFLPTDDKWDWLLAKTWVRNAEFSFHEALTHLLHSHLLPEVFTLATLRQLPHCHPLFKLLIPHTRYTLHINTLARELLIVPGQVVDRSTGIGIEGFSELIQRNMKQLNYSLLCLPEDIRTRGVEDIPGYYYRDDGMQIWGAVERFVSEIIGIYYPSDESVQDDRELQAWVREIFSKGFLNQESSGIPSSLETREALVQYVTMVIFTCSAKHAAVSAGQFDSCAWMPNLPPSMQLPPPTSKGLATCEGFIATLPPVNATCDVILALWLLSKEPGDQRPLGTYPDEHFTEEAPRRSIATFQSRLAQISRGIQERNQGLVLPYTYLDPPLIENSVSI
Outline: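 Read-out: hydroperoxide product oxidises ferrous iron, measured as xylenol orange complex via the 573-to-405 nm absorbance ratio after 30 min. Reaction: 50 nM enzyme, 15 min compound preincubation, 45 uM arachidonic acid, 90 min RT, Hepes pH 7.5 with Triton X-100.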
% is scaled to controls: 0 for no effect and ±100 for the full control effect; potency is read from the fitted curve at half-maximal effect; tags tell the direction and shape of the fitted curve.

SMILES | Potency | activity change, negative = inhibition
CCCCCCC/C=C\CCCCCCCCC(=O)O | inconclusive: 31.6 µM [inhibitor, single point] | –
CCC(=O)Nc1ccc(NC(=O)CSc2nc3cc4c(cc3cc2C)CCC4)cc1 | inconclusive: 20 µM [inhibitor, single point] | –
Oc1ccc2ccccc2c1C=Nc1ccc(N2CCOCC2)cc1 | inconclusive: 12.6 µM [inhibitor, partial curve] | –
O=C(Cc1ccc(Cl)cc1)Nc1cccc(-c2nnc(-c3ccco3)o2)c1 | inconclusive: 25.1 µM [inhibitor, single point] | –
CC(=O)c1c(N(C)C)ccnc1C(F)(F)F | – | inactive: -0.284%
Cn1c(=O)c2c(nc(C(=N)SCC(=O)O)n2C)n(C)c1=O | – | inactive: -4.47% [at 11.4 µM]
Oc1ccccc1C1Nc2cccc3cccc(c23)N1 | active: 2 µM | –
N#Cc1c(Nc2ccc(F)cc2)sc(C(=O)c2ccc(F)cc2)c1N | inconclusive: 12.6 µM [inhibitor, partial curve] | –
Cc1ccc(Nc2ncc3c(n2)CC(c2ccco2)CC3=O)c(C)c1 (configuration not stated) | – | inactive: -4.05%
CCn1nc(C(=O)OC(C(=O)c2c[nH]c3ccccc23)c2ccccc2)c2ccccc2c1=O (configuration not stated) | – | inactive: -4.21%
Oc1ccc(N=Cc2ccc(-c3cccs3)s2)cc1 | inconclusive: 12.6 µM [inhibitor, partial curve] | –
CN(C)C(=O)c1cc([N+](=O)[O-])cc([N+](=O)[O-])c1N(C)C | inconclusive: 31.6 µM [inhibitor, single point] | –
c1ccc(Cc2nn3c(C4COc5ccccc5O4)nnc3s2)cc1 (configuration not stated) | – | inactive: -13.9%
CC1CCCN(CCCNC(=O)C2CC(=O)N(c3ccc(F)c(Cl)c3)C2)C1 (configuration not stated) | inconclusive: 0.199 µM [inhibitor, full curve, poor fit] | –
CC[n+]1c(/C=C(\C)SC)sc2ccccc21 | inconclusive: 15.8 µM [inhibitor, partial curve] | –
O=C(O)Cn1ccnc1[N+](=O)[O-] | – | inactive: -4.66% [at 11.4 µM]
CN1CCc2cc(Cl)c(O)cc2[C@H](c2ccccc2)C1 | – | inactive: 8.06%
CCNc1nnc(-c2ccc(C)cc2)o1 | inconclusive: 6.31 µM [inhibitor, single point] | –
O=C(NCc1ccccc1)c1ccc2nc(-c3ccco3)c(-c3ccco3)nc2c1 | inconclusive: 7.94 µM [inhibitor, partial curve] | –
CCOCc1cnc(C)nc1NCC(=O)c1c(C)n(C)c2ccc(OC)cc12 | inconclusive: 39.8 µM [inhibitor, single point] | –
Nc1ncnc2c1nc(-c1ccccc1)n2[C@H]1O[C@@H](CO)[C@@H](O)[C@H]1O | – | inactive: -4.51% [at 11.4 µM]
O=C(COC(=O)C1CCN(S(=O)(=O)c2cccs2)CC1)c1cc2ccccc2o1 | inconclusive: 20 µM [inhibitor, partial curve] | –
COc1ccc(C2=NOC(C(=O)Nc3c(C)n(C)n(-c4ccccc4)c3=O)C2)cc1 (configuration not stated) | – | inactive: 1.22%
Cc1ccc(OCC(=O)Nc2ccc(O)c(-c3nc4ccccc4o3)c2)cc1 | inconclusive: 25.1 µM [inhibitor, partial curve] | –

SMILES | Potency | activity change, negative = inhibition
BrC/C=C/CBr | – | inactive: -11.6%
O=c1oc2ccccc2n1CCn1c2ccccc2c2nc3ccccc3nc21 | inconclusive: 31.6 µM [inhibitor, single point] | –
S[C@@H]1CCCN(Cc2ccccc2)C1 | – | inactive: 0.684% [at 11.4 µM]
Cc1nc(CCNC(=O)Cc2ccc(Cl)cc2)cs1 | – | inactive: -1.16%
C=CCn1c(CSc2nc3ccccc3s2)nnc1SCC(=O)OCC | – | inactive: 0.875%
CCN(CC)c1ccc(NC(=O)Nc2cccc(C(C)=O)c2)cc1 | inconclusive: 20 µM [inhibitor, partial curve] | –
COc1cc(C(Nc2ccc3c(c2)OCO3)C(=O)NC2CCCCC2)cc(OC)c1OC (configuration not stated) | inconclusive: 39.8 µM [inhibitor, single point] | –
Cc1c(C(=O)N2CCCCC2)sc(N)c1C#N | – | inactive: 1.12%
S=c1[nH]nc(C2CCCCC2)n1/N=C/c1ccc(Br)s1 | inconclusive: 15.8 µM [inhibitor, partial curve] | –
O=[N+]([O-])c1ccc(N/N=C/c2c[nH]c3ccccc23)cc1 | inconclusive: 6.31 µM [inhibitor, partial curve] | –
Cn1c2ccccc2c2cc(C(=O)OCC(=O)N3CC(=O)Nc4ccccc43)sc21 | inconclusive: 10 µM [inhibitor, partial curve] | –
Cn1c(-c2ccc(-c3ccccc3)cc2)c[nH]c1=S | inconclusive: 25.1 µM [inhibitor, partial curve] | –
CCCSC1=C(C#N)C(c2ccccc2C)CC(=O)N1 (configuration not stated) | inconclusive: 31.6 µM [inhibitor, single point] | –
COc1ccc2c(c1)C(c1ccc3c(c1)OCO3)CC(=O)O2 (configuration not stated) | inconclusive: 15.8 µM [inhibitor, partial curve] | –
Cc1ccc(N=Cc2c(O)n(-c3cc(Cl)ccc3N3CCOCC3)c(=O)c3ccccc23)cc1C | – | inactive: -1.8%
CCCCCC(=O)NC(=S)Nc1ccc(N2CCCCC2)c(Cl)c1 | inconclusive: 15.8 µM [inhibitor, partial curve, poor fit] | –
CCOC(=O)/C(C#N)=C/c1cc(C)n(-c2ccccc2)c1C | inconclusive: 20 µM [inhibitor, partial curve] | –
CS/C(=N\S(=O)(=O)c1cccs1)NC(=O)CSc1nc2ccccc2s1 | – | inactive: -29.2%
CCOC(=O)N1CCN(C(=O)c2ccc3nc(N4CCC(C)CC4)sc3c2)CC1 | – | inactive: -4.51%
Cn1c(C(=O)N2CCCC(C(=O)NCCCSC3CCCCC3)C2)cc2sccc21 (configuration not stated) | inconclusive: 25.1 µM [inhibitor, single point] | –
O=C(CSc1nnc(-c2cccnc2)n1Cc1ccco1)c1ccc(Cl)c(Cl)c1 | inconclusive: 15.8 µM [inhibitor, partial curve, poor fit] | –
O=C(Cc1ccccc1)N/N=C/c1ccc([N+](=O)[O-])s1 | inconclusive: 12.6 µM [inhibitor, partial curve] | –
CC(C)Cn1c(-c2csc3c2CCCC3)n[nH]c1=S | inconclusive: 10 µM [inhibitor, partial curve] | –
